The values that follow come from patent US20040110933A1.

Test [1] concerns the target human CD44 expressed on human cells (KG1a, SR91, HMEC, HUVEC, primary leukocytes) (human) (UniProt P16070). In words: displacement of FL-HA, KG1a-HA+ cells, Fab 500 µg/mL.
For test [2] the target is unchanged. Description: flow cytometry, KG1a-HA+ cells, Fab 1000 µg/mL, anti-6His + GxM-FITC (background 6). (In flow cytometry, cells or beads pass a laser one at a time.)
Test [3] has the same target. In words: flow cytometry, KG1a-HA- cells, Fab […].
Test [4] has the same target. In words: flow cytometry, KG1a-HA- cells, Fab 1000 µg/mL, anti-6His + GxM-FITC (background 6).
Test [5] has the same target. Description: flow cytometry, KG1a-HA- cells, Fab 500 µg/mL.
For test [6] the target is unchanged. Description: flow cytometry, KG1a-HA- cells, Fab 50 µg/mL, anti-6His + GxM-FITC (background 6).
Test [7] has the same target. In words: flow cytometry on KG1a cells, Fab at 0.1-1 µg/mL.
Test [8] shares this target. Description: flow cytometry, CD44+ cells, Fab 25 µg/mL, 9E10 + GxM FITC detection (background 29).
For test [9] the target is unchanged. Description: flow cytometry, SR91 cells, Fab 20 µg/mL.
For test [10] the target is unchanged. In words: displacement of FL-HA, KG1a-HA+ cells, Fab […].
For test [11] the target is unchanged. In words: displacement of FL-HA, KG1a-HA- cells, Fab 250 µg/mL.
Test [12] has the same target. In words: displacement of FL-HA, KG1a-HA- cells, Fab […].
Test [13] shares this target. In words: flow cytometry, KG1a-HA- cells, Fab 100 µg/mL, anti-6His + GxM-FITC (background 6).

B1: HAE-H10 Fab (Fab, V domains shown)
VH: EVQLLESGGGLVQPGGSLRLSCAASGFTFSPYLMSWVRQAPGKGLEWVSSIYSSGGLTDYADSVKGRFTISRDNSKNTLYLQMNSLRAEDTAVHYCARDGYYDSSGYEGFDYWGQGTLVTVSS
VL: [about 100 residues left out here]FGQGTKLEIK
Take B1: the % inhibition of HA binding in [1] came to 57%; in test [10], 11.2%; in [11], 61.1%; in [12] it was 91%. In addition, the fluorescence (Fab Binding) in test [2] amounted to 108; in test [4], 132; in [6], 12; in test [13], 34. Also, the fluorescence (Binding Titration) (arbitrary fluorescence units) amounted to 46 in [3] and 108 in test [5]. For the same molecule, the FL counts (arbitrary units) came to 9 in test [7], 34 in test [8] and 2.42 in [9].
